# According to PubChem BioAssay AID624417 (National Center for Advancing Translational Sciences (NCATS), 2012):
# Hit rate of the full screen: of about 410,000 compounds, about 6,400 (1.6%) were called active. Inconclusive means that the source gave no clear call. Such entries were picked first, then a sample of the others. The call rests on the fitted dose curve; in most records, active means well fitted inhibition curve with a large enough effect; inconclusive means small, poorly fitted or top-dose-only effect; inactive means no such curve, though single readings can be large or run the other way. No potency is given beside an inconclusive call; the fits are too rough.
# Biological target: Glucagon-like peptide 1 receptor (Homo sapiens) (UniProt P43220)
# Experiment: qHTS of GLP-1 Receptor Inverse Agonists (Inhibition Mode); further: nearly all actives have a fitted effect of over 55% in size
# Settings: HEK293 GLP-1R CRE-luciferase, luminescence, 24 h, GLP-1R form is constitutively active; activity change, negative = inhibition: at 38.3 µM (top of the series) unless noted
# How it was run: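 HEK293 cells stably co-expressing constitutively active GLP-1R and a cAMP-responsive luciferase reporter were seeded in DMEM with 10% Nu serum, given compounds after 12 h, and incubated 24 h at 37 deg C. Luminescence was then read.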
# On the % scale 0 is the no-effect control and ±100 the full control effect; potency means the concentration at half of the fitted maximal effect; tags describe the fitted curve by direction and shape.
# Chain of UniProt P43220 (P43220 whole entry, looked up): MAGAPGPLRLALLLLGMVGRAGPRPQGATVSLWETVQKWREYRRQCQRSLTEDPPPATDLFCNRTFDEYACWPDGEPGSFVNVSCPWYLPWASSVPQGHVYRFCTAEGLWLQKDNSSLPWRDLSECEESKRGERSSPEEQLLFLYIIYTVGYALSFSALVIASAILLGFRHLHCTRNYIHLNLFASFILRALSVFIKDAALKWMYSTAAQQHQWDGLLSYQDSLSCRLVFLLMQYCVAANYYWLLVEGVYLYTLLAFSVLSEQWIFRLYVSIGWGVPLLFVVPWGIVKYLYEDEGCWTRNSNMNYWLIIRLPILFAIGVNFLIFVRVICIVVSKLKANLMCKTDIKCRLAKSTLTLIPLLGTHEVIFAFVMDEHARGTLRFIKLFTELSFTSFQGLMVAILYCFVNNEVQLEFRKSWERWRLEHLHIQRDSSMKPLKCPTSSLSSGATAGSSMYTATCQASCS
SMILES,Potency,"activity change, negative = inhibition"
CCCN(CCC)C(=O)Cn1c(=O)n(-c2cccc(C)c2)c(=O)c2c1c1cc(OC)ccc1n2C,"inconclusive [inhibitor, single point]",–
COc1ccc2c(c1)OC(O)(C(F)(F)C(F)F)CC2=O (configuration not stated),"inconclusive [inhibitor, single point]",–
COc1cccc(-c2cc(C(F)(F)F)nc(NCCc3ccc(OC)c(OC)c3)n2)c1,–,inactive: 0.328%
O=C(c1cc(COc2c(F)cccc2F)on1)N1CCN(C2CCCCC2)CC1,"inconclusive [inhibitor, partial curve]",–
O=C(CC(Cc1ccccc1)c1ccco1)NC1CCCCC1 (configuration not stated),"inconclusive [inhibitor, single point]",–
COc1ccc2nc3ccccc3[n+]([O-])c2c1,–,inactive: 31.3%
COc1cc(S(=O)(=O)NC2CCCCC2C)ccc1F (configuration not stated),"inconclusive [inhibitor, single point]",–
Cc1cccc(N2CCN(C(=O)c3ccc(S(=O)(=O)N(C)c4ccccc4)cc3)CC2)c1C,active: 1 µM,–
Cc1cc(NC(=O)CSc2nnc(-c3ccccc3)o2)no1,"inconclusive [inhibitor, partial curve, poor fit]",–
c1ccc(CC2CCN(c3ncnc4sccc34)CC2)cc1,"inconclusive [inhibitor, partial curve, poor fit]",–
OC(CN1CCN(c2cccc(Cl)c2)CC1)c1ccc(F)cc1 (configuration not stated),"inconclusive [inhibitor, single point]",–
COc1ccccc1NC(=O)C1=C(C)Nc2nc(SC)nn2C1c1ccccc1Cl (configuration not stated),–,inactive: 19.3%
Cc1ccsc1C(=O)N1CCCC(CO)(Cc2ccccc2F)C1 (configuration not stated),"inconclusive [inhibitor, single point]",–
CCOC(=O)c1cn(Cc2ccc(C)cc2)c2cc(F)ccc2c1=O,"inconclusive [inhibitor, full curve, poor fit]",–
Cc1ccc(NC(=O)C2CCCC2)cc1Cl,"inconclusive [inhibitor, single point]",–
Cc1c(C(=O)OCC(=O)N2CC(C)CC(C)C2)oc2ccccc12 (configuration not stated),"inconclusive [inhibitor, single point]",–
CCCNC(=O)C1(C)CCN(C(=O)COCc2ccccc2)C1 (configuration not stated),–,inactive: -15.1%
Cc1cccc(CN2CCC(CNC(=O)Cn3ncc4c([nH]c5ccc(C)cc54)c3=O)CC2)c1,–,inactive: 7.9%
CCN1CCN(Cc2ccc(NC(=O)c3ccc(C)c(/C=C/c4cnc(Nc5cc(N6CCNCC6)nc(C)n5)cn4)c3)cc2C(F)(F)F)CC1,"inconclusive [inhibitor, partial curve, poor fit]",–
CCOC(=O)c1c(NC(=O)COC(=O)Cc2ccccc2[N+](=O)[O-])sc(C(=O)N(C)C)c1C,–,inactive: 57.1%
Cc1ccc(Cl)c(NC(=O)CN(C)CC(=O)Nc2ccc(F)c(F)c2F)c1Cl,"inconclusive [inhibitor, partial curve, poor fit]",–

SMILES,Potency,"activity change, negative = inhibition"
CCc1ccc(CNC(=O)C2CCCN(c3nnc(C)c4c(C)n(-c5ccccc5)nc34)C2)cc1 (configuration not stated),inactive,–
CCOC(=O)C1=CN(Cc2cccc(-c3ccc4c(c3)OCO4)c2)S(=O)(=O)N(C)C1C (configuration not stated),"inconclusive [inhibitor, single point]",–
Cc1ccccc1CSc1ncc(Cl)c(C(=O)Nc2nc3ccc(F)cc3s2)n1,–,inactive: 14.5%
O=C(NCCc1ccccc1)N1c2ccccc2Sc2ccccc21,"inconclusive [inhibitor, partial curve, poor fit]",–
Cc1ccccc1-c1cnc(C(O)c2ccc(F)cc2)[nH]1 (configuration not stated),–,inactive: 25.8%
CC(Sc1nc(C(C)(C)C)cc(-c2ccccc2)c1C#N)C(=O)Nc1ccccc1 (configuration not stated),"inconclusive [inhibitor, partial curve]",–
O[C@H]1C[C@H](c2ccc(Cl)cc2)N(Cc2cccs2)C[C@@H]1n1cc(-c2ccc(F)cc2)nn1,"inconclusive [inhibitor, single point]",–
COc1ccc(Nc2ncnc3ccc(Br)cc23)c(OC)c1,"inconclusive [inhibitor, full curve, poor fit]",–
CC(C)(C)NCCOCCOc1ccc(Cl)cc1C(C)(C)C,"inconclusive [inhibitor, single point]",–
C/C(=N\Nc1nc(C)cc(-c2ccccc2)n1)c1cccc(N)c1,"inconclusive [inhibitor, partial curve, poor fit]",–
C=CCN1CC(c2nc3ccccc3n2Cc2ccccc2)CC1=O (configuration not stated),–,inactive: -6.74%
Cc1ccc(C(=O)N/N=C/c2nc3ccccc3n2C)cc1,–,inactive: 20.8%
Cc1ccc(S(=O)(=O)N2CCOCC2)cc1C(=O)NC1CCN(Cc2ccccc2)CC1,–,inactive: 11.7%
O=S(=O)(Nc1cccc2c1CCCC2)c1ccc(Cl)cc1,"inconclusive [inhibitor, partial curve, poor fit]",–
Cc1cc2oc(=O)c(CC(=O)NCCc3ccccc3F)c(C)c2c2occ(C(C)(C)C)c12,"inconclusive [inhibitor, single point]",–
COc1cccc2[nH]c3c(N4CCCC(C)C4)ncnc3c12 (configuration not stated),"inconclusive [inhibitor, single point]",–
CN(c1ccccc1)c1nc(N)c([N+](=O)[O-])c(N2CCCC2)n1,"inconclusive [inhibitor, single point]",–
O=C(Nc1ccc(F)c(Cl)c1)c1cc(C2CCCCN2C(=O)c2ccccc2)on1 (configuration not stated),"inconclusive [inhibitor, single point]",–
CCCCN(C(=O)C1CCC(CNS(=O)(=O)c2cccc3nsnc23)CC1)c1ccccc1 (configuration not stated),"inconclusive [inhibitor, partial curve, poor fit]",–
N#Cc1ccccc1NC(=O)CSc1nnc(-c2ccc(F)cc2)n1-c1ccccc1,"inconclusive [inhibitor, partial curve, poor fit]",–
O=C(CN1C2=NCCCN2c2ccccc21)c1ccc(Br)s1,"inconclusive [inhibitor, partial curve, poor fit]",–
